Screen size: about 310,000 compounds; about 2,200 (0.71%) showed an effect of 50% or more. The effect is printed as a negative number. The list shows a part of the results.
Target: human ether-à-go-go-related gene (hERG) potassium channel (human, UniProt Q12809)
Experiment: primary screen, population patch clamp on CHO cells stably expressing hERG

human ether-à-go-go-related gene (hERG) potassium channel, sequence (Q12809 whole entry, looked up): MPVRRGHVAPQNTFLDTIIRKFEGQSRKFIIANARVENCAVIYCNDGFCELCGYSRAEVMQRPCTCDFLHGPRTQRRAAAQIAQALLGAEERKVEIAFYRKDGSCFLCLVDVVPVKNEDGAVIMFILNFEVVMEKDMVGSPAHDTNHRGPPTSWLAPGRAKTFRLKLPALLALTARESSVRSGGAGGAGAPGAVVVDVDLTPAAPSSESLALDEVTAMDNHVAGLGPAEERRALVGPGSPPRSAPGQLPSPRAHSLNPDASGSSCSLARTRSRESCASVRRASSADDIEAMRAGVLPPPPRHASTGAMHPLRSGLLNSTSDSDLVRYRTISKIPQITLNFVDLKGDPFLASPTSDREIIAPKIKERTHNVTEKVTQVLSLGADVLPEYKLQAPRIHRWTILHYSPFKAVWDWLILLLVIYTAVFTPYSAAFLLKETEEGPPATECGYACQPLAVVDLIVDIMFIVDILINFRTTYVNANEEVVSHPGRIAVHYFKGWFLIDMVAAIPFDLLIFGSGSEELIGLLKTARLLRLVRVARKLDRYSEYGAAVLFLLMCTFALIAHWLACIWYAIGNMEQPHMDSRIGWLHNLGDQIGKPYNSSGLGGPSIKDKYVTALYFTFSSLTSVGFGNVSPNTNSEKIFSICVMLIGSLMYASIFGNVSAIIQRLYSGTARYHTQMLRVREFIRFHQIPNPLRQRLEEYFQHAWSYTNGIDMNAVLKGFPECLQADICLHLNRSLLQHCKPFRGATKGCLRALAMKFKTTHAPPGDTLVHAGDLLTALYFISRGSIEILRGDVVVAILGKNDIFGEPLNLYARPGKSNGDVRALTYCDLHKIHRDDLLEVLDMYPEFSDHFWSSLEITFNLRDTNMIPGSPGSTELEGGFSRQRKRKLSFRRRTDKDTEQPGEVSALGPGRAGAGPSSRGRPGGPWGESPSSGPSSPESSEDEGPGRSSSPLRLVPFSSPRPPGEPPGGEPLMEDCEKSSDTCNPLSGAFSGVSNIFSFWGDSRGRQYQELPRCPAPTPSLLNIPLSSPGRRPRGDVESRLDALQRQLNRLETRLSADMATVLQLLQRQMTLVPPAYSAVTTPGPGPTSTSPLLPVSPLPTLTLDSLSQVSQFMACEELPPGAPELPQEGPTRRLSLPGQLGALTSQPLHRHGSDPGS

Row | Structure (SMILES) | hERG current change (%, negative = inhibition) at 1uM [%]
1 | CCCCn1c(N)c(N(CCOC)C(=O)c2ccc3c(c2)C(=O)N(c2ccccc2C)C3=O)c(=O)[nH]c1=O | 11.8
2 | CC(=O)Nc1ccc(NS(=O)(=O)c2ccc(Cl)c(C(=O)O)c2)cc1 | 8.79
3 | CO/N=C(\c1nonc1N)N1CCN(c2ccc(Cl)cc2[N+](=O)[O-])CC1 | 14.6
4 | COc1ccc(CCNC(=O)c2cc(-c3ccc(Cl)c(Cl)c3)oc2C)cc1 | 5.31
5 | O=C(NNS(=O)(=O)c1ccccc1C(F)(F)F)c1cccc(S(=O)(=O)Nc2ccccc2Cl)c1 | 8.56
6 | Cc1ccc(OCC(=O)NC(C)c2ccc(Cl)c(Cl)c2)c([N+](=O)[O-])n1 (centres unmarked) | 6.7
7 | CCCNC(=O)C(Cc1ccccc1)NC(=O)c1ccc(C(C)(C)C)cc1 (centres unmarked) | -3.9
8 | COc1ccccc1N1CCN(/N=C\c2sccc2C)CC1 | 7.51
9 | O=C(NNC(=S)NC1CC2C=CC1C2)c1cccnc1 (centres unmarked) | 15.3
10 | Cc1c(C(=O)NCCSCc2c(F)cccc2Cl)cnn1-c1ccc(F)cc1 | 5.51
11 | O=C(N/N=C\c1ccc(F)cc1)c1ccc(Cn2cc(Br)c([N+](=O)[O-])n2)o1 | -22.6
12 | O=[N+]([O-])c1ccc(C=Nc2ccc(Cl)cc2Cl)s1 | -2.21
13 | O=C(NCC1CCCO1)C1CCN(S(=O)(=O)Cc2ccccc2)CC1 (centres unmarked) | 11.1
14 | Cc1nn(C(C)CC(=O)O)c(C)c1Br (centres unmarked) | 14.5
15 | CC(OC(=O)c1cccc(NS(C)(=O)=O)c1)C(=O)Nc1ccc2c(c1)OCO2 (centres unmarked) | -17.5
16 | COc1ccccc1CNC(=O)c1cc(-c2cccnc2)nc2ccccc12 | 5.47
17 | CC(=O)N(c1cccc(Br)c1)c1nc(C)cc(C)c1C#N | 15.6
18 | CC(C)(C)n1nnnc1C(c1cccnc1)N(Cc1ccccc1)Cc1cccs1 (centres unmarked) | 16.8
19 | O=C(Cn1c(NCCO)nc2ccccc21)c1ccccc1 | 12.9
20 | Cc1cccc(C(C)C)c1NC(=O)Cc1ccc(S(=O)(=O)N2CCOCC2)s1 | -4.08
21 | CC(=O)c1ccc(N2C(=NC(=O)C(C)C)SC3CS(=O)(=O)CC32)cc1 (centres unmarked) | 9.13
22 | CN(Cc1ccccc1)C(=O)Cn1cccc1C(=O)c1ccccc1 | 14.5

Row | Structure (SMILES) | hERG current change (%, negative = inhibition) at 1uM [%]
23 | COc1ccc(NC(=O)CCN2CCN(S(=O)(=O)c3ccc(F)cc3)CC2)cc1 | 7.39
24 | COc1ccc(NC(=O)c2cc(-c3ccccc3)on2)cc1OC | 12.6
25 | O=C(CCC(=O)NC1CCN(Cc2ccccc2)CC1)NCc1ccco1 | 4.92
26 | CCn1c(NN=O)nc2ccccc21 | 9.1
27 | COc1ccccc1N1CCN(C(=S)NC(=O)/C=C/c2ccccc2)CC1 | 3.66
28 | CCCC1Cc2c(sc(N)c2C#N)CO1 (centres unmarked) | 2.23
29 | CCN(CC)P(=S)(c1c(C)nc2ccccn12)c1c(C)nc2ccccn12 | 10.3
30 | Clc1cccc(Cl)c1Cn1c(-c2cccnc2Cl)nc2ccccc21 | -5.16
31 | Cc1ccc(CSCC(=O)Nc2ccccc2C(=O)O)cc1 | 19.3
32 | COCc1cc(C)nc2oc(C(=O)c3ccccc3)c(N)c12 | 4.77
33 | CC(=O)N1N=C(c2ccco2)CC1c1ccco1 (centres unmarked) | 15.4
34 | CC(C)(C)OC(=O)N1CCC2(CC1)C(C#N)=C(N)OC1=C2C(=O)CCC1 | 3.6
35 | CC(Sc1nnc(NC(=O)c2cc3ccccc3oc2=O)s1)c1ccccc1 (centres unmarked) | 9.53
36 | COc1cc(N)c(Cl)cc1C(=O)OCC(=O)N1CCCC1 | 15.1
37 | O=C(O)c1ccc2c(c1)C(=O)N(NC(=O)c1ccc(O)cc1)C2=O | 24
38 | COc1ccc(CNC(=O)CSc2nn3c(=O)c(C(C)(C)C)nnc3s2)cc1OC | 3.74
39 | Fc1ccccc1N1CCN(C2CCCN(Cc3cccc(C(F)(F)F)c3)C2)CC1 (centres unmarked) | 6.9
40 | COc1ccccc1NC(=O)COC(=O)CNC(=O)c1ccc(OC)c(OC)c1 | 9.03
41 | CC(C)CC(C(=O)NC(=O)NCc1ccccc1)N1C(=O)c2ccccc2C1=O (centres unmarked) | 8.16
42 | COc1ccc(S(=O)(=O)Nc2ccc(O)c(Sc3nc4ccccc4s3)c2)cc1 | 22.2
43 | CC1CC1C(=O)OCC(=O)NNC(=O)COc1ccc(Br)cc1 (centres unmarked) | 7.3
44 | O=C(N/N=C/c1cccnc1)c1ccccc1[N+](=O)[O-] | 0.672

Reference: paper PMC4336329 (PLoS ONE, 2015)
